Like-named read-outs stand apart in the source and are kept apart here.

The record followed here is patent publication US5041426A, “Immune system enhancing 3-β-d-ribofuranosylthiazolo[4,5-d]pyridimine nucleosides and nucleotides” (priority 1988, dated 1991).

For the experiment, the system named is Semliki Forest Virus. The conditions noted are these: for antiviral activity (in words): Tables 16 and 17. As for the experimental part:
Antiviral activity was also tested against Semliki Forest Virus an Encephalitis type virus. In this example compounds 7 and 36 were tested for therapeutic efficacy and additionally compound 7 was tested for prophylactic efficacy. Results of this test are shown in Table 16 for the therapeutic mode and in Table 17 for the prophylactic mode.
^a Halfdaily doses were administered twice a day for 7 days starting
hours previrus inoculation
inoculation. Halfdaily doses were administered twice a day because of […]

Turning to `Nc1nc2c(sc(=O)n2[C@@H]2O[C@H](CO)[C@@H](O)[C@H]2O)c(=O)[nH]1` [Compound 7, 5-Amino-3-β-D-ribofuranosylthiazolo[4,5-d]pyrimidine-2,7(6H)-dione], the “antiviral activity (in words)” value was “exhibited antiviral activity in both a therapeutic mode and a prophylactic mode”. Further, the “Mean Survival Time” value (prophylactic, 200 mg/kg/day, half-daily doses 24 and 16 h pre-virus) is 11.8 ± 2.9 days. Moreover, the “Mean Survival Time” value (therapeutic, 50 mg/kg/day, once a day at -2 h and days 2, 4, 6) was 6.6 ± 0.8 days. Further, under “therapeutic, 100 mg/kg/day, once a day at -2 h and days 2, 4, 6”, the “Mean Survival Time” value stood at 7.3 ± 0.5 days. Besides, the “Mean Survival Time” value (therapeutic, 200 mg/kg/day, -2 h and days 2, 4, 6, half-daily doses twice a day) is given as 4.2 ± 0.8 days.

As to `Nc1nc2c(sc(=O)n2[C@H]2C[C@H](O)[C@@H](CO)O2)c(=O)[nH]1` [Compound 36, 5-Amino-3-(2-deoxy-β-D-erythropentofuranosyl)thiazolo[4,5-d]pyrimidine-2,7(3H,6H)-dione], the “antiviral activity (in words)” value is given as “exhibited therapeutic antiviral activity”. Under “therapeutic, 50 mg/kg/day, schedule not given”, the “Mean Survival Time” value is given as 6.1 ± 1.1 days. Moreover, for the setting “therapeutic, 100 mg/kg/day, schedule not given”, the “Mean Survival Time” value worked out at 6.8 ± 0.8 days. Further, the “Mean Survival Time” value (therapeutic, 200 mg/kg/day, schedule not given) is listed as 7.0 ± 0.0 days.
